Measurements: the supplement of paper PMC4604168 (melanoma cell lines)
Some of the results follow. Many values rest on one well or one pass, so single values are uncertain.

How the values were obtained:
Experiment in all cases: cell count relative to DMSO control; melanoma cells; higher = more viable cells
Settings in all cases: library dose: standard library concentration; 72 h
[1] = system: A101D
[2] = system: A2058
[3] = system: A375
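Also: cells treated in 1,536-well plates, then fixed and DAPI-stained, with nuclei counted from automated high-throughput microscope images.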

| SMILES | cell count [1] [%] | cell count [2] [%] | cell count [3] [%] |
| --- | --- | --- | --- |
| O=C(/C=C/c1cccnc1)NCCCCC1CCN(C(=O)c2ccccc2)CC1 + CC(=O)c1c(C)c2cnc(Nc3ccc(N4CCNCC4)cn3)nc2n(C2CCCC2)c1=O [palbociclib] (first compound 0.05 µM, partner dose 0.2 µM) | 63.3 | 106 | 102 |
| O=C(/C=C/c1cccnc1)NCCCCC1CCN(C(=O)c2ccccc2)CC1 + C[C@]1(c2nc3c(C(N)=O)cccc3[nH]2)CCCN1 [Veliparib] (first compound 0.05 µM, partner dose 7 µM) | 91 | 60.3 | 80.3 |
| Cc1ccc(Nc2nccc(N(C)c3ccc4c(C)n(C)nc4c3)n2)cc1S(N)(=O)=O [Pazopanib] + CO[C@H]1C[C@@H]2CC[C@@H](C)[C@@](O)(O2)C(=O)C(=O)N2CCCC[C@H]2C(=O)O[C@H]([C@H](C)C[C@@H]2CC[C@@H](OCCO)[C@H](OC)C2)CC(=O)[C@H](C)/C=C(\C)[C@@H](O)[C@@H](OC)C(=O)[C@H](C)C[C@H](C)/C=C/C=C/C=C/1C [everolimus] (first compound 2 µM, partner dose 0.1 µM) | 95.8 | 60.9 | 90.7 |
| CC1(C)CCC(c2ccc(Cl)cc2)=C(CN2CCN(c3ccc(C(=O)NS(=O)(=O)c4ccc(N[C@H](CCN5CCOCC5)CSc5ccccc5)c(S(=O)(=O)C(F)(F)F)c4)cc3)CC2)C1 + CC(=O)c1c(C)c2cnc(Nc3ccc(N4CCNCC4)cn3)nc2n(C2CCCC2)c1=O [palbociclib] (first compound 2 µM, partner dose 0.2 µM) | 57.3 | 96.3 | 57.4 |
| CC1(C)CCC(c2ccc(Cl)cc2)=C(CN2CCN(c3ccc(C(=O)NS(=O)(=O)c4ccc(N[C@H](CCN5CCOCC5)CSc5ccccc5)c(S(=O)(=O)C(F)(F)F)c4)cc3)CC2)C1 + Nc1cccc2c1CN(C1CCC(=O)NC1=O)C2=O [lenalidomide] (first compound 2 µM, partner dose 5 µM) | 38.9 | 82.9 | 77.2 |
| Cc1ccc(Nc2nccc(N(C)c3ccc4c(C)n(C)nc4c3)n2)cc1S(N)(=O)=O [Pazopanib] + Cn1c(Nc2ccc(C(F)(F)F)cc2)nc2cc(Oc3ccnc(-c4ncc(C(F)(F)F)[nH]4)c3)ccc21 [CHIR265] (first compound 2 µM, partner dose 0.4 µM) | 59.4 | 51 | 93.9 |
| CC1(C)CCC(c2ccc(Cl)cc2)=C(CN2CCN(c3ccc(C(=O)NS(=O)(=O)c4ccc(N[C@H](CCN5CCOCC5)CSc5ccccc5)c(S(=O)(=O)C(F)(F)F)c4)cc3)CC2)C1 + CCN(CC)CCNC(=O)c1c(C)[nH]c(/C=C2\C(=O)Nc3ccc(F)cc32)c1C [sunitinib] (first compound 2 µM, partner dose 2 µM) | 20.9 | 42.4 | 54.7 |
| CC1(C)CCC(c2ccc(Cl)cc2)=C(CN2CCN(c3ccc(C(=O)NS(=O)(=O)c4ccc(N[C@H](CCN5CCOCC5)CSc5ccccc5)c(S(=O)(=O)C(F)(F)F)c4)cc3)CC2)C1 + C[C@@H](N)c1ccc(C(=O)Nc2ccnc3[nH]ccc23)cc1 [RKI983] (first compound 2 µM, partner dose 2 µM) | 32.6 | 62.6 | 49.2 |
| CC1(C)CCC(c2ccc(Cl)cc2)=C(CN2CCN(c3ccc(C(=O)NS(=O)(=O)c4ccc(N[C@H](CCN5CCOCC5)CSc5ccccc5)c(S(=O)(=O)C(F)(F)F)c4)cc3)CC2)C1 + O=C(O)[C@@H]1[O][Sb](=[O])([O][Sb]2(=[O])[O][C@H]([C@H](O)CO)[C@H](O)[C@H](C(=O)O)[O]2)[O][C@H]([C@H](O)CO)[C@@H]1O [stibogluconate] (first compound 2 µM, partner dose 10 µM) | 35.4 | 101 | 56 |
| CC1(C)CCC(c2ccc(Cl)cc2)=C(CN2CCN(c3ccc(C(=O)NS(=O)(=O)c4ccc(N[C@H](CCN5CCOCC5)CSc5ccccc5)c(S(=O)(=O)C(F)(F)F)c4)cc3)CC2)C1 + C[C@]1(c2nc3c(C(N)=O)cccc3[nH]2)CCCN1 [Veliparib] (first compound 2 µM, partner dose 7 µM) | 45.2 | 78.4 | 74.3 |
| O=C(/C=C/c1cccnc1)NCCCCC1CCN(C(=O)c2ccccc2)CC1 + CC(=O)O[C@@]12CO[C@@H]1C[C@H](O)[C@@]1(C)C(=O)[C@H](O)C3=C(C)[C@@H](OC(=O)[C@H](O)[C@@H](NC(=O)OC(C)(C)C)c4ccccc4)C[C@@](O)([C@@H](OC(=O)c4ccccc4)[C@H]21)C3(C)C [Docetaxel] (first compound 0.05 µM, partner dose 0.0005 µM) | 49.1 | 9.45 | 77.5 |
| CC1(C)CCC(c2ccc(Cl)cc2)=C(CN2CCN(c3ccc(C(=O)NS(=O)(=O)c4ccc(N[C@H](CCN5CCOCC5)CSc5ccccc5)c(S(=O)(=O)C(F)(F)F)c4)cc3)CC2)C1 + CO[C@H]1C[C@@H]2CC[C@@H](C)[C@@](O)(O2)C(=O)C(=O)N2CCCC[C@H]2C(=O)O[C@H]([C@H](C)C[C@@H]2CC[C@@H](OCCO)[C@H](OC)C2)CC(=O)[C@H](C)/C=C(\C)[C@@H](O)[C@@H](OC)C(=O)[C@H](C)C[C@H](C)/C=C/C=C/C=C/1C [everolimus] (first compound 2 µM, partner dose 0.1 µM) | 36.6 | 56.6 | 61.6 |
| CC1(C)CCC(c2ccc(Cl)cc2)=C(CN2CCN(c3ccc(C(=O)NS(=O)(=O)c4ccc(N[C@H](CCN5CCOCC5)CSc5ccccc5)c(S(=O)(=O)C(F)(F)F)c4)cc3)CC2)C1 + COCC[n+]1c2c(n(Cc3cnccn3)c1C)C(=O)c1ccccc1C2=O [YM155] (first compound 2 µM, partner dose 0.002 µM) | 35.7 | 10.6 | 29.1 |
| CC1(C)CCC(c2ccc(Cl)cc2)=C(CN2CCN(c3ccc(C(=O)NS(=O)(=O)c4ccc(N[C@H](CCN5CCOCC5)CSc5ccccc5)c(S(=O)(=O)C(F)(F)F)c4)cc3)CC2)C1 + Cn1c(=O)n(-c2ccc(C(C)(C)C#N)cc2)c2c3cc(-c4cnc5ccccc5c4)ccc3ncc21 [NVP-BEZ235] (first compound 2 µM, partner dose 0.02 µM) | 28.2 | 64.1 | 49.4 |
| O=C(/C=C/c1cccnc1)NCCCCC1CCN(C(=O)c2ccccc2)CC1 + O=C(O)c1ccc2c(c1)nc(Nc1cccc(Cl)c1)c1ccncc12 [CX4945] (first compound 0.05 µM, partner dose 2 µM) | 84.2 | 99.8 | 61.4 |
| CC1(C)CCC(c2ccc(Cl)cc2)=C(CN2CCN(c3ccc(C(=O)NS(=O)(=O)c4ccc(N[C@H](CCN5CCOCC5)CSc5ccccc5)c(S(=O)(=O)C(F)(F)F)c4)cc3)CC2)C1 + COc1ccc2c(c1)CCC1C2CCC2(C)C(NCCCCCCN3C(=O)C=CC3=O)CCC12 [U73122] (first compound 2 µM, partner dose 2 µM) | 31.2 | 48.8 | 70.8 |
| O=C(/C=C/c1cccnc1)NCCCCC1CCN(C(=O)c2ccccc2)CC1 + Cc1nc(Nc2ncc(C(=O)Nc3c(C)cccc3Cl)s2)cc(N2CCN(CCO)CC2)n1 [dasatanib] (first compound 0.05 µM, partner dose 0.02 µM) | 86.3 | 75.4 | 70.6 |
